Experimental data published in article PMC2792720, “Binding of NIR-conPK and NIR-6T to Astrocytomas and Microglial Cells: Evidence for a Protein Related to TSPO” (PLoS ONE, 2009).

Target: T1, TSPO (Mus musculus, UniProt P50637)
T1 construct: mitochondrial-enriched membranes from DBT cells were prepared by lysing cells with ice-cold homogenization buffer; endogenous in cells; host or cells: DBT mouse astrocytoma cells (mitochondrial-enriched membranes / homogenates), untreated or cytokine-treated
Assay: Filtration radioligand binding assay, [^3H]-PK 11195 binding to DBT cell homogenates
Settings: read-out: Ki, competition for [^3H]-PK 11195 binding
Description: Enriched membranes were prepared according to [28]. Briefly, mitochondrial-enriched membranes from DBT cells were prepared by lysing cells with ice-cold homogenization buffer (50 mM Tris, 1 mM EDTA and 3 mM MgCl2), followed by dounce homogenization (five gentle strokes). Homogenates were centrifuged (40,000×g, 15 min, 4°C) and cell pellet resuspended in 0.5 ml homogenization buffer, re-homogenized by dounce (five gentle strokes while on ice) and centrifuged again (40,000×g, 15 min, 4°C). Cell pellets were stored at −80°C until further use. Radioligand binding assays were performed in silanized glass test tubes (Kimble Glass Inc.). […] Five ml of Ecoscint XR scintillation fluid (National Diagnostics, Atlanta, GA) was added, followed by 10 sec vortexing and ∼18 hrs incubation at room temperature prior to determining the radioactivity with a scintillation counter (PerkinElmer, Boston MA).
Data are expressed as n = number of determinations (three per independent experiment). Statistical analysis, Kd and Ki values were calculated using non-linear regression with a one binding site hyperbola, where X is the concentration of the ligand, Y is specific binding and Bmax and Kd are determined using this equation: Y = Bmax X/Kd+X calculated by GraphPad Prism 4.

CCC(C)N(C)C(=O)c1cc2ccccc2c(-c2ccccc2Cl)n1 (stereo not shown) [PK 11195]
Ki: 2 nM [passage A] and 41 nM [passage B]

Some entries of the source have several records that differ or are many. The list is limited to them. There may be further records. Results that share an entry read as repeated measurements on other runs, samples or individuals. Records carry a tag for their origin. Letters count within one entry.
